{
  "source": "the supplement of paper PMC8728848",
  "assay_in_all_cases": "glycan array binding signal (z-score within array); higher = stronger binding",
  "settings_in_all_cases": "glycan notation: IUPAC condensed, linker removed",
  "key": {"[1]": {"molecular_target": "Neu5Ac(a2-8)Neu5Ac(a2-8)Neu5Ac(a2-3)[GalNAc(b1-4)]Gal(b1-4)Glc", "summary_of_the_method": "(§1)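 Negative Z-scores can be read as non-binding. The Z-score is calculated within each array and then averaged across arrays of one protein sequence at different concentrations or buffers and across linkers. Arrays, 3228 in all, were curated from the Consortium for Functional Glycomics database and kept only where the protein sequence was available.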"}, "[2]": {"molecular_target": "Neu5Ac(a2-8)Neu5Ac(a2-8)Neu5Ac(a2-8)Neu5Ac(a2-3)[GalNAc(b1-4)]Gal(b1-4)Glc", "summary_of_the_method": "as §1"}, "[3]": {"molecular_target": "Neu5Ac(a2-8)Neu5Gc(a2-3)Gal(b1-4)GlcNAc", "summary_of_the_method": "as §1"}, "[4]": {"molecular_target": "Neu5Ac(b2-6)Gal(b1-4)GlcNAc", "summary_of_the_method": "as §1"}, "Neu5Ac(b2-6)GalNAc": {"molecular_target": "Neu5Ac(b2-6)GalNAc", "summary_of_the_method": "as §1"}, "[5]": {"molecular_target": "Neu5Ac9Ac(a2-3)Gal(b1-3)GlcNAc", "summary_of_the_method": "as §1"}, "[6]": {"molecular_target": "Neu5Ac9Ac(a2-3)Gal(b1-4)GlcNAc", "summary_of_the_method": "as §1"}, "[7]": {"molecular_target": "Neu5Ac9Ac(a2-6)Gal(b1-4)GlcNAc", "summary_of_the_method": "as §1"}, "[8]": {"molecular_target": "Neu5Gc(a2-3)Gal(b1-3)GlcNAc", "summary_of_the_method": "as §1"}, "[9]": {"molecular_target": "Neu5Gc(a2-3)Gal(b1-3)[Fuc(a1-4)]GlcNAc", "summary_of_the_method": "as §1"}, "Neu5Gc(a2-3)Gal(b1-4)Glc": {"molecular_target": "Neu5Gc(a2-3)Gal(b1-4)Glc", "summary_of_the_method": "as §1"}, "[10]": {"molecular_target": "Neu5Gc(a2-3)Gal(b1-4)GlcNAc", "summary_of_the_method": "as §1"}, "[11]": {"molecular_target": "Neu5Gc(a2-3)Gal(b1-4)GlcNAc(b1-3)Gal(b1-4)GlcNAc(b1-2)Man(a1-3)[Neu5Gc(a2-3)Gal(b1-4)GlcNAc(b1-3)Gal(b1-4)GlcNAc(b1-2)Man(a1-6)]Man(b1-4)GlcNAc(b1-4)GlcNAc", "summary_of_the_method": "as §1"}, "[12]": {"molecular_target": "Neu5Gc(a2-3)Gal(b1-4)[Fuc(a1-3)]GlcNAc", "summary_of_the_method": "as §1"}, "[13]": {"molecular_target": "Neu5Gc(a2-6)Gal(b1-4)GlcNAc", "summary_of_the_method": "as §1"}, "Neu5Gc(a2-6)GalNAc": {"molecular_target": "Neu5Gc(a2-6)GalNAc", "summary_of_the_method": "as §1"}, "[14]": {"molecular_target": "Neu5Gc(a2-8)Neu5Ac(a2-3)Gal(b1-4)GlcNAc", "summary_of_the_method": "as §1"}, "[15]": {"molecular_target": "Neu5Gc(a2-8)Neu5Gc(a2-3)Gal(b1-4)GlcNAc", "summary_of_the_method": "as §1"}, "[16]": {"molecular_target": "Neu5Gc(a2-8)Neu5Gc(a2-3)Gal(b1-4)GlcNAc(b1-3)Gal(b1-4)GlcNAc", "summary_of_the_method": "as §1"}, "[17]": {"molecular_target": "Neu5Gc(a2-8)Neu5Gc(a2-6)Gal(b1-4)GlcNAc", "summary_of_the_method": "as §1"}, "[18]": {"molecular_target": "Neu5Gc(b2-6)Gal(b1-4)GlcNAc", "summary_of_the_method": "as §1"}},
  "note": "The other results are listed elsewhere or left out.",
  "data": [
    {"binder": "AAL (Agrocybe aegerita), Q6WY08 (protein) MQGVNIYNISAGTSVDLAAPVTTGDIVTFFSSALNLNAGAGNPNNTTLNLFAENGAYLLHIAFRLQENVIIFNSRQPDGPWLVEQRVSDVANQFAGIDGKAMVTVFDHGDKYQVVINEKTVIQYTKQISGLTLSLSYNATEETSIFSTVVEAVTYTGLALEHHHHHH", "values": [
      {"measurement": "glycan array binding signal (z-score)", "setting": "[1]", "result": -0.147},
      {"measurement": "glycan array binding signal (z-score)", "setting": "[2]", "result": -0.132},
      {"measurement": "glycan array binding signal (z-score)", "setting": "[3]", "result": 1.26},
      {"measurement": "glycan array binding signal (z-score)", "setting": "[4]", "result": -0.154},
      {"measurement": "glycan array binding signal (z-score)", "setting": "Neu5Ac(b2-6)GalNAc", "result": -0.142},
      {"measurement": "glycan array binding signal (z-score)", "setting": "[5]", "result": -0.156},
      {"measurement": "glycan array binding signal (z-score)", "setting": "[6]", "result": -0.011},
      {"measurement": "glycan array binding signal (z-score)", "setting": "[7]", "result": -0.157},
      {"measurement": "glycan array binding signal (z-score)", "setting": "[8]", "result": -0.155},
      {"measurement": "glycan array binding signal (z-score)", "setting": "[9]", "result": -0.157},
      {"measurement": "glycan array binding signal (z-score)", "setting": "Neu5Gc(a2-3)Gal(b1-4)Glc", "result": -0.106},
      {"measurement": "glycan array binding signal (z-score)", "setting": "[10]", "result": -0.097},
      {"measurement": "glycan array binding signal (z-score)", "setting": "[11]", "result": 0.361},
      {"measurement": "glycan array binding signal (z-score)", "setting": "[12]", "result": -0.151},
      {"measurement": "glycan array binding signal (z-score)", "setting": "[13]", "result": -0.16},
      {"measurement": "glycan array binding signal (z-score)", "setting": "Neu5Gc(a2-6)GalNAc", "result": -0.124},
      {"measurement": "glycan array binding signal (z-score)", "setting": "[14]", "result": -0.019},
      {"measurement": "glycan array binding signal (z-score)", "setting": "[15]", "result": 0.278},
      {"measurement": "glycan array binding signal (z-score)", "setting": "[16]", "result": 2.45},
      {"measurement": "glycan array binding signal (z-score)", "setting": "[17]", "result": -0.145},
      {"measurement": "glycan array binding signal (z-score)", "setting": "[18]", "result": -0.147}
    ]}
  ]
}
